# Reference: the supplement of paper PMC4166925
# ± gives the standard deviation of the averaged measurements. Whole data set: some 33,000 sequences, median “E-score (dimensionless, -0.5 to 0.5)” near -0.046, cut for the highest 2% near 0.36. The list shows a part of the results.
# System: T1, SpTbr T-box DNA-binding domain (GST fusion)
# T1 sequence: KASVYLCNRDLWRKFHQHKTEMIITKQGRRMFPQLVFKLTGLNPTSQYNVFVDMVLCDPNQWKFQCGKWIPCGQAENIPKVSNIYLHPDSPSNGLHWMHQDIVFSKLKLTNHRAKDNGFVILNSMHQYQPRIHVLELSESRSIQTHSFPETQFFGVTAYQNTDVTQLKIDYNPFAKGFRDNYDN
# Assay: PBM E-score of 8-mer (E-score (dimensionless, -0.5 to 0.5)); Tbr is Tbrain of the sea star Patiria miniata (Pm) or the sea urchin Strongylocentrotus purpuratus (Sp); higher = stronger binding preference; most listed sequences are background and not binding sites
# Conditions: the construct has about 5 more residues each side
# Summary of the method: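 Each ungapped 8-mer received an enrichment E-score from the Universal PBM Analysis Suite, averaged over duplicate arrays. The proteins were Tbr T-box DNA-binding domains, covering the whole T-box plus about five flanking residues, fused to GST and expressed in BL21 E. coli at 20 °C before glutathione affinity purification. Universal Agilent oligonucleotide arrays were made double-stranded by primer extension and incubated with 200 nM protein in PBS (pH 7.5). The arrays were then scanned and quantified, and every 8-mer was scored from probe intensities.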
row,Sequence,PBM E-score of 8-mer
1,AACATGGC,-0.215 ± 0.036
2,CGGTGAAA,-0.274 ± 0.042
3,AAGAAGAT,-0.0736 ± 0.1
4,AAAGTAAA,-0.172 ± 0.075
5,ATGAGTAA,-0.0943 ± 0.0023
6,AGAAAGTG,0.287 ± 0.06
7,ATTGCATC,-0.214 ± 0.016
8,CTTTTCCC,-0.218 ± 0.16
9,ATCACAAC,0.299 ± 0.025
10,TCTGCAAA,-0.0679 ± 0.031
11,AGCGCCGA,0.152 ± 0.073
12,AGAGCCTA,-0.332 ± 0.033
13,GTACATAC,-0.0384 ± 0.00061
14,GCAATAGA,-0.0798 ± 0.035
15,AACACGTT,0.367 ± 0.044
16,CTCCTTTA,-0.0308 ± 0.006
17,ATGCTATA,-0.168 ± 0.055
18,AAGAAATA,0.13 ± 0.06
19,GCTCCACA,-0.00039 ± 0.012
20,GAAAAAGC,-0.208 ± 0.11
21,ACGAAAAG,-0.178 ± 0.028
22,CAACTGAC,0.182 ± 0.023

row,Sequence,PBM E-score of 8-mer
1,GCCATGCC,-0.0317 ± 0.011
2,GCATTGGA,-0.206 ± 0.049
3,GAAGGGTA,-0.00279 ± 0.061
4,ATACTAAT,-0.12 ± 0.019
5,CATAATAC,-0.00448 ± 0.0078
6,CAGATATG,-0.176 ± 0.05
7,ATTCTAGC,-0.125 ± 0.003
8,TCAAAGAA,-0.155 ± 0.01
9,GTGGGTTA,0.065 ± 0.072
10,AGGCTCAC,-0.0576 ± 0.023
11,CTTCGGAA,-0.249 ± 0.035
12,GACCCCCC,-0.274 ± 0.013
13,ATACTTCG,0.0544 ± 0.074
14,AGCATTTC,-0.00498 ± 0.015
15,CACTTAAA,0.193 ± 0.072
16,TAAAAGCA,-0.117 ± 0.057
17,AGAATAAT,-0.173 ± 0.025
18,TCTTGGAA,-0.204 ± 0.0074
19,AGGCCACC,-0.0979 ± 0.0063
20,AAGCGCCG,0.0262 ± 0.033
21,CCAACAAC,0.125 ± 0.055
22,GATCTTGA,0.0838 ± 0.011

row,Sequence,PBM E-score of 8-mer
1,GGACGAAA,-0.0373 ± 0.096
2,AAAGTTGA,0.0259 ± 0.0017
3,CCTCTACA,-0.0916 ± 0.1
4,ATGTTTGG,-0.108 ± 0.06
5,AATCCTCC,0.0597 ± 0.00073
6,ACGGCTGA,-0.172 ± 0.044
7,CCTTCTTC,0.0794 ± 0.076
8,AGCGACAC,0.332 ± 0.022
9,AACTGTCG,0.241 ± 0.013
10,AGCCGACA,0.154 ± 0.0023
11,CTATCTCC,-0.112 ± 0.027
12,CGGTGATC,-0.0462 ± 0.038
13,TGAACGCA,-0.228 ± 0.0055
14,AATCTTCG,-0.114 ± 0.064
15,CAGGTGGG,0.2825 ± 0.00043
16,CAAGATAC,-0.0448 ± 0.013
17,ATAAGCAT,-0.142 ± 0.028
18,ATGTATAA,-0.0389 ± 0.013
19,ATGGAAGA,-0.324 ± 0.029
20,AAGCGATG,-0.017 ± 0.026
21,GGAGATTA,-0.0793 ± 0.016
22,TGGGCCAA,-0.11 ± 0.026

row,Sequence,PBM E-score of 8-mer
1,GAAAACAA,-0.0618 ± 0.05
2,ATGTGGGC,-0.0132 ± 0.0053
3,CATTACGC,0.0346 ± 0.071
4,CGATAGGA,-0.0501 ± 0.0023
5,ACGGACGG,-0.107 ± 0.064
6,CACAGCTA,0.327 ± 0.014
7,AATCCCAC,0.151 ± 0.013
8,GCTCCAGA,-0.261 ± 0.008
9,CCCCAGCC,-0.0674 ± 0.013
10,CGTCGCCC,0.149 ± 0.072
11,CGCACCCC,0.32 ± 0.044
12,TTAGCCAA,-0.117 ± 0.0016
13,TAACAGAA,-0.0518 ± 0.012
14,CGTAACGA,-0.183 ± 0.031
15,CGTTCGCA,0.411 ± 0.0075
16,CCGGGTAG,-0.056 ± 0.068
17,ACTGCGGC,0.0509 ± 0.003
18,GCTGGGAA,0.0702 ± 0.046
19,ATCTCTCA,0.171 ± 0.012
20,TAAGTGTA,0.143 ± 0.093
21,CCTTTATC,-0.00086 ± 0.15
22,CTCCCAGC,0.07894 ± 7.1e-05

row,Sequence,PBM E-score of 8-mer
1,TAAGGATA,-0.0903 ± 0.053
2,ATTATTCA,-0.246 ± 0.073
3,CATTTTGA,-0.216 ± 0.051
4,CGACCCCG,-0.0732 ± 0.01
5,CGCTTAAA,0.0934 ± 0.032
6,AGACTACG,-0.303 ± 0.026
7,GAGGCTCA,-0.129 ± 0.025
8,GCATACAC,0.0478 ± 0.089
9,AAATATAG,-0.0849 ± 0.002
10,CAGTGTAC,-0.0521 ± 0.026
11,TAACAATA,0.1776 ± 0.0016
12,CACAACTA,0.2177 ± 0.00043
13,ATGGTTGA,0.0176 ± 0.022
14,ACGGCCAC,0.036 ± 0.0052
15,CGCGTGGC,0.143 ± 0.068
16,AATTCAGG,-0.189 ± 0.017
17,CTCACAAA,0.00513 ± 0.071
18,AATCAATG,0.0077 ± 0.038
19,GGTGCTAA,0.4658 ± 0.00059
20,GTGTGAGA,0.4699 ± 0.0024
21,AATCTACG,-0.0969 ± 0.03
22,AATGTTAG,-0.14 ± 0.049
